{"source": "PubChem BioAssay (Tox21)", "test": "qHTS assay to identify small molecule antagonists of the thyroid receptor (TR) signaling pathway (AID 743065); also: nearly all actives have a fitted effect of over 55% in size", "details": "GH3.TRE-Luc, T3-stimulated luciferase inhibition, 23.5 h; series mostly up to 70.3 µM", "summary_of_the_method": "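GH3.TRE-Luc rat pituitary cells (two TREs driving luciferase) were dosed with compound, then stimulated with 1 nM T3 (final) for 23.5 h at 37 C. ONE-Glo luminescence was the read-out, with CellTiter-Fluor fluorescence as the cytotoxicity counter-screen.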", "note": "Inconclusive results are not listed. Calls follow the shape of the dose curve; as a rule, active = well fitted inhibition curve with a large enough effect in the repeat runs; inconclusive = weak or mixed curves; inactive = no such curve, though single readings can be large or run the other way. A structure can be active in one record and inactive in another. Some entries of the source have several records that differ or are many. This is not the full list of results. There may be further records. Values given together repeat one measurement (runs, samples, wells, individuals or studies). Records carry a tag for their origin. Letters hold for one entry only. Potency is read from the fitted curve at half-maximal effect.", "data": [{"smiles": "CCN(CC)C(=O)[C@@H]1C=C2c3cccc4[nH]cc(c34)C[C@H]2N(C)C1", "values": [{"measurement": "Potency", "result": "active: 160 µM [sample A] and inactive [sample B]"}]}]}
